Measurements reported in PMC4336329 (PLoS ONE, 2015).
The whole screen tested about 310,000 compounds, of which about 14,000 (4.5%) showed an effect of 50% or more. Effects have a minus sign here. The list shows a part of the results.
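Note: peak tail current of the secondary pulse compared with the same well before compound.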

What follows are compounds tested against human ether-à-go-go-related gene (hERG) potassium channel (human, UniProt Q12809) (assay: primary screen, population patch clamp on CHO cells stably expressing hERG).
Chain of human ether-à-go-go-related gene (hERG) potassium channel (Q12809 whole entry, looked up): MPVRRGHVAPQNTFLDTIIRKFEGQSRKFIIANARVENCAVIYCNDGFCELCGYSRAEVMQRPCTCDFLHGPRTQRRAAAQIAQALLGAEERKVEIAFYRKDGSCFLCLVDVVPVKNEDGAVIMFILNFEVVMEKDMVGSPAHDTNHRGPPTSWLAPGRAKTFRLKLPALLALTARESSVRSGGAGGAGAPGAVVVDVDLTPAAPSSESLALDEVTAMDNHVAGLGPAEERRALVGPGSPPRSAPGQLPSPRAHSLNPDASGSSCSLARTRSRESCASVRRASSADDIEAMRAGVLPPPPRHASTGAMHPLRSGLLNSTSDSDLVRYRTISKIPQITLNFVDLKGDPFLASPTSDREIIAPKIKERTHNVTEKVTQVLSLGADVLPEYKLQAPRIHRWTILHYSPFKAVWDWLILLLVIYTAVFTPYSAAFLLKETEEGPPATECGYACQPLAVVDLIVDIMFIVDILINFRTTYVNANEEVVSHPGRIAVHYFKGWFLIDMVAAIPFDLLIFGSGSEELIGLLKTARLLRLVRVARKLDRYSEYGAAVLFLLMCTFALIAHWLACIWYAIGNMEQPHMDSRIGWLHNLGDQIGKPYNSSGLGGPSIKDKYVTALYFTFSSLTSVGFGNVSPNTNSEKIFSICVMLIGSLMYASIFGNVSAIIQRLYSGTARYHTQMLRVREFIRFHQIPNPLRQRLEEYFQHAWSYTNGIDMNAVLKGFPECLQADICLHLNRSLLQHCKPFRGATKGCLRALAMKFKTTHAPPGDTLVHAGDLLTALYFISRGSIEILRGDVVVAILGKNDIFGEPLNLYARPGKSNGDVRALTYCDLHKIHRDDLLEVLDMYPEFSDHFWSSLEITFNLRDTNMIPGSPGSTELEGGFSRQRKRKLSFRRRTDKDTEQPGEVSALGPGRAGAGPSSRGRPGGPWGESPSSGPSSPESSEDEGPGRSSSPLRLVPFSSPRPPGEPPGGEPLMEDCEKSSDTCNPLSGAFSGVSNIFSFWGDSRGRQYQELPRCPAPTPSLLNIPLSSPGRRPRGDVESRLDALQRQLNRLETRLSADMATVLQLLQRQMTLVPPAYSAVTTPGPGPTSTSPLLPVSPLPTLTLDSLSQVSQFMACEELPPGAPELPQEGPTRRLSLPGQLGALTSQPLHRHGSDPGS
`O=C(OCC(=O)N1CCN(C(=O)c2ccco2)CC1)c1cc(=O)c2ccccc2o1` was tested, and the “hERG current change (%, negative = inhibition) at 10uM” value was -11.9%.
With `COCCN(C(=O)COC(=O)C1COc2ccccc2O1)c1c(N)n(Cc2ccccc2)c(=O)[nH]c1=O` (stereo not shown) the “hERG current change (%, negative = inhibition) at 10uM” value was 4.92%.
With `S=C(NCCCN1CCOCC1)Nc1ccc(N2CCOCC2)cc1` the “hERG current change (%, negative = inhibition) at 10uM” value was 10.9%.
`Cc1ccc(C)c(S(=O)(=O)N2CCN(C(=O)Cc3ccccc3)CC2)c1` was tested, and the “hERG current change (%, negative = inhibition) at 10uM” value was -34.3%.
For `CCn1c(-c2nn(C)c(C)c2Cl)n[nH]c1=S`, the “hERG current change (%, negative = inhibition) at 10uM” value was 18.1%.
For `O=C(O)c1cccc(NC(=O)c2cn(-c3ccccc3)nc2-c2ccc([N+](=O)[O-])cc2)c1`, the “hERG current change (%, negative = inhibition) at 10uM” value was 19.5%.
With `Cc1c(C(=O)OC(C)C)sc(NC(=O)c2cccnc2)c1C#N` the “hERG current change (%, negative = inhibition) at 10uM” value was 18.3%.
With `O=C(Oc1cccc(F)c1)c1ccc2c(=O)n3c(nc2c1)CCC3` the “hERG current change (%, negative = inhibition) at 10uM” value was -25.9%.
With `O=S1(=O)C=CC(Nc2ccccc2)C1` (stereo not shown) the “hERG current change (%, negative = inhibition) at 10uM” value was -76%.
With `CCOC(=O)c1ccc(COC(=O)c2nonc2N)cc1` the “hERG current change (%, negative = inhibition) at 10uM” value was -2.34%.
In the case of `C/C(CC(=O)Nc1ccc2c(c1)OCCO2)=N\NC(=O)Cc1ccccc1`, the “hERG current change (%, negative = inhibition) at 10uM” value is reported as -9.4%.
For `C=CCNc1nc(N2CCCCC2)c(C#N)c2c1CN(Cc1ccccc1)CC2`, the “hERG current change (%, negative = inhibition) at 10uM” value was 2.45%.
In the case of `COC(=O)c1nc2cc3c(cc2c(C)c1C(=O)OC)OCO3`, the “hERG current change (%, negative = inhibition) at 10uM” value is reported as 10.8%.
For `O=C/C(=C\Nc1ccccn1)c1nc2cc(Cl)ccc2o1`, the “hERG current change (%, negative = inhibition) at 10uM” value was -6.2%.
For `CC(NC(=O)c1ccc(S(=O)(=O)N(C)C)cc1)c1ccc(-n2ccnc2)cc1` (stereo not shown), the “hERG current change (%, negative = inhibition) at 10uM” value was -74%.
In the case of `CC(=O)C1=C(c2ccccc2)NC(=O)NC1c1ccccc1OCC(=O)NCc1ccccc1` (stereo not shown), the “hERG current change (%, negative = inhibition) at 10uM” value is reported as 8.3%.
For `CC1=CC(c2ccc(Cl)cc2)n2nc(NC(=O)CCC(=O)O)nc2N1` (stereo not shown), the “hERG current change (%, negative = inhibition) at 10uM” value was 5.5%.
With `O=C(NCc1cccs1)c1cnn2cccnc12` the “hERG current change (%, negative = inhibition) at 10uM” value was -13.4%.
In the case of `CC1(C)CC(=O)C2=C(C1)OC(c1ccc(O)cc1)C(C#N)=C2N` (stereo not shown), the “hERG current change (%, negative = inhibition) at 10uM” value is reported as 9%.
`CC1CCN(C(=O)c2ccc(NC(=O)c3ccccc3)cc2)CC1` was tested, and the “hERG current change (%, negative = inhibition) at 10uM” value was 4.15%.
In the case of `Cc1ccc2cccc(OC(=O)N3CCCC3)c2n1`, the “hERG current change (%, negative = inhibition) at 10uM” value is reported as -8.73%.
With `CC(CCc1ccco1)NC(=O)Cn1ncc2c(=O)oc3ccccc3c21` (stereo not shown) the “hERG current change (%, negative = inhibition) at 10uM” value was -15.8%.
With `Cc1cccc(C(=O)Nc2cccc3cccnc23)c1` the “hERG current change (%, negative = inhibition) at 10uM” value was 9.73%.
`COc1ccccc1C(C)NS(=O)(=O)c1ccc(Cl)nc1` (stereo not shown) was tested, and the “hERG current change (%, negative = inhibition) at 10uM” value was -5.69%.
`COC(=O)C1=C(c2cc3ccccc3s2)C[C@@H]2CC[C@H]1N2C(=O)NC1CC1` was tested, and the “hERG current change (%, negative = inhibition) at 10uM” value was -17.8%.
